According to the RNAGym collection of RNA variant scans (doi:10.1093/nar/gkz1192):
The source gives no read counts; variants with many changes may rest on few reads.

B1: CPEB3 Ribozyme (parent)
chain: UAACAGGGGGCCACAGCAGAAGCGUUCACGUCGCAGCCCCUGUCAGAUUCUGGUGAAUCUGCGAAUUCUGCUGUAUAUCUC

Variants of: B1
Test: self-cleavage, relative activity (ratio to wild type); higher = more cleavage; in vitro, sequencing
Method in brief: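 Libraries of CPEB3 self-cleaving ribozyme mutants came from rounds of error-prone PCR and carried barcodes, which DNA sequencing matched to variants. In vitro transcription used T7 RNA polymerase at 37°C for 5 hours, with a further 15 min in DNase I before EDTA stopped the reaction; the ribozymes cleaved during both steps. The RNA was reverse transcribed with template switching and sequenced on Illumina. Relative activity is the cleaved/total read fraction of a variant divided by that of the unmutated ribozyme, averaged over three batches with at least 5 reads.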
In the case of A2G G7C U49A U67C, the self-cleavage is reported as 0.16. Variant U1C C37A U43G U49C A56G U72C A75G has a self-cleavage of 0.06. In the case of A2G A5G U25C A35G U74C, the self-cleavage is reported as 0.83. With A2G A15U U54C U78C the self-cleavage was 0.24. Variant A2G A20G U25C U72A has a self-cleavage of 0.07. In the case of U1C C23A C29U U67A U69A U72C, the self-cleavage is reported as 0.04. U1G G7A C23U U49C C50U U54A showed a self-cleavage of 0.05. U1C U26C U31C A35C U43A U49A gave a self-cleavage of 0.39. For A2G A15G A20G, the self-cleavage was 0.3. U1C C4U C50U gave a self-cleavage of 1.12. For A2G A5G A15U C34U A56U, the self-cleavage was 0.27. With A2G A64G A65G U67A the self-cleavage was 0.29. Variant U1C U48C U72C has a self-cleavage of 0.41. U1C C29G U78A gave a self-cleavage of 0.38. For A2G A15G U66C, the self-cleavage was 0.41. Work on U1C U26C A35G U49A A56G U72C yielded a self-cleavage of 0.31. A2G C32A U54G A56G showed a self-cleavage of 0.24. For U1G A45G A56U, the self-cleavage was 0.21. A2G A20U A21G U41A showed a self-cleavage of 0.2. Variant A2G A35U U43C has a self-cleavage of 0.26. With U1C U26C A64G A77U the self-cleavage was 0.17. For U1C U41C U49A U69A, the self-cleavage was 0.51. A2G A5U G22U gave a self-cleavage of 0.26. In the case of A2G A65G U80A, the self-cleavage is reported as 0.25. With U1C U41A A56G U66C the self-cleavage was 0.06. Work on A2G A20U U41C A64G yielded a self-cleavage of 0.33. Variant A2G C17U U25C A45U U69A U72A has a self-cleavage of 0.05. Variant A2G C40U U41C G52C U78C has a self-cleavage of 0.44. With A2G A18U U26G C37U G70A U72C U74C the self-cleavage was 0.04. A2G G6A U41A U60C showed a self-cleavage of 0.55. Variant U1C G24A U31C U51A G61C U78A has a self-cleavage of 0.05. Variant A2G A18G U54C A56U U80C has a self-cleavage of 0.17. With U1C A21C U25G U54C U69G the self-cleavage was 0.04. With U1C U26C U54C A57G U67C U78C U80C the self-cleavage was 0.09. In the case of A2G A20G U26A A28G, the self-cleavage is reported as 0.61. Variant U1C U41A A47U has a self-cleavage of 0.1. In the case of U1C U48C U60A U80A, the self-cleavage is reported as 0.48. Work on U1C A20U A45C U51C A75U yielded a self-cleavage of 0.05. For U1C G33C U43C A56G, the self-cleavage was 0.47. Work on U1C C23A A35G U67C yielded a self-cleavage of 0.13. Variant U1C A35G U51C U58C G63U has a self-cleavage of 1.03. U1G U51C U74C gave a self-cleavage of 1.1. Variant A2G G6A G19A A20U U41A U48C U60G has a self-cleavage of 0.05. With A2G C39A C68U the self-cleavage was 0.36. A2G C37U U43C U51A gave a self-cleavage of 0.08. U1C A21G A75U showed a self-cleavage of 0.86. In the case of U1C A56U A57G A77U, the self-cleavage is reported as 0.17. A2G C4U U26G U78A showed a self-cleavage of 0.22. For U1G A3U U41C A45G U60G U67C, the self-cleavage was 0.09. A2G A3G A18G U78C showed a self-cleavage of 0.72. Work on A2G A15G G24A U25C A35G G42A A64U yielded a self-cleavage of 0.28. With A2G C27U U54C G63C the self-cleavage was 0.41. Work on A2G C11G A15U U48C A56G U72A yielded a self-cleavage of 0.05. Variant A2G A45G C50U A56U has a self-cleavage of 0.31. Variant U1C A28U A47G U49C U51A A64G has a self-cleavage of 0.25. With A2G A18G C37A the self-cleavage was 0.27. With U1G A3G U58C U67C C68U the self-cleavage was 0.15. With A2G G6A A21G A35U the self-cleavage was 0.33. With U1C C40U U48C A56G U58C A64C the self-cleavage was 0.06. Variant A2G A20G U41A A64G has a self-cleavage of 0.27. Work on U1C C62A U78A yielded a self-cleavage of 0.09. A2G C39U C40G U58C gave a self-cleavage of 0.16. Work on U1C U60C A64U U80C yielded a self-cleavage of 0.29. For U1C U31C A77G, the self-cleavage was 0.66. Work on A2G A13G G53A yielded a self-cleavage of 0.68. A2C C32G A57G showed a self-cleavage of 0.06. U1C C11U A28C U41G U43C U76C A77G gave a self-cleavage of 0.2. A2G A13U U66C showed a self-cleavage of 0.23. A2G A5C A20G U54A gave a self-cleavage of 0.49. For U1C G10A U26A, the self-cleavage was 0.35. U1C G7A A13U A20G U58C U66C A77G showed a self-cleavage of 0.04. In the case of A2G A13U A28C, the self-cleavage is reported as 0.39. In the case of A2G A15U U43C U54A A65G U66C U67C, the self-cleavage is reported as 0.08. Variant U1G C4A C39A A47G U54A U69C has a self-cleavage of 0.11. With U1C A64U U80C the self-cleavage was 0.16. A2G A18G U25C U26C A28G U74G U76A gave a self-cleavage of 1.06. A2G C4U A21G C71U gave a self-cleavage of 0.29. Work on A2G A13G U25C A65G yielded a self-cleavage of 0.2. For A2G A5G G8C A18G U31A U80A, the self-cleavage was 0.07. A2G C12G A18G U51A U60C U72A gave a self-cleavage of 0.04. Work on U1C A35U U60C yielded a self-cleavage of 0.2. A2G C32G G53U A75G C79G gave a self-cleavage of 0.03. A2G A5U U60C A75U C81A gave a self-cleavage of 0.53. With A2G A5U A35U U78C the self-cleavage was 0.49. In the case of A2G A15U A28U G33A U43C, the self-cleavage is reported as 0.2. A2C A35G U51C gave a self-cleavage of 1.15. A2G C23U G36U gave a self-cleavage of 0.19. For A2G C34U U41A U51A, the self-cleavage was 0.32. A2G A21U U41C gave a self-cleavage of 0.18. A2G A47G U49C showed a self-cleavage of 0.15. With A2C G9A A28G A45U A47G A57G U72C the self-cleavage was 0.05. Variant U1C G7C A15U U31C G63A U66A U78C has a self-cleavage of 0.07. For U1C G19A A45C A64U, the self-cleavage was 0.2. U1C C32A U41A A45G U54C A56U gave a self-cleavage of 0.04. Work on A2G A45C U67C yielded a self-cleavage of 0.17. U1C G7U A28G U60C gave a self-cleavage of 0.05. With A2G A5G C17U U25C C40A U60A A64G the self-cleavage was 0.07. Work on A2G A21G G24U U26A U48C G52C U74C yielded a self-cleavage of 0.05. U1C U26A A35U C39G A45G A75U showed a self-cleavage of 0.03. In the case of A2C A47G G55A U66C, the self-cleavage is reported as 0.23. Work on A2G A13G U26C yielded a self-cleavage of 0.5. Work on A2G A5G G30A A45U U60C yielded a self-cleavage of 0.11. Variant A2G C29U U51A U54A A65U C71U has a self-cleavage of 0.25. Work on U1C G24A U69C yielded a self-cleavage of 0.15. Work on U1C U43C A57G A77G yielded a self-cleavage of 0.28. For U1C A20U U58C, the self-cleavage was 0.39. Variant A2G A15G A18U U26C has a self-cleavage of 0.09. A2G A18G U54G gave a self-cleavage of 0.46. A2G A20G A21G A47G U69C showed a self-cleavage of 0.29. Variant U1C A21G U51C G70U has a self-cleavage of 0.07. With U1C C11G A56U G63A U80C the self-cleavage was 0.09. In the case of U1C U31C C50A U74G, the self-cleavage is reported as 0.71. For A2G A15G A28C G46A U48C U69G, the self-cleavage was 0.08. With U1C G8U U41A U51A U54A U76C the self-cleavage was 0.06. In the case of A2G A15G A47G, the self-cleavage is reported as 0.47. Work on A2G C12U U41C yielded a self-cleavage of 1.17. In the case of U1C G8A A13U U26C U67C A75U, the self-cleavage is reported as 0.04. For A2G A13G A64G A77G, the self-cleavage was 0.18. A2C U26C A35U gave a self-cleavage of 0.4. A2G A21G C81U showed a self-cleavage of 0.7. Variant A2G A5G G6A A15G has a self-cleavage of 0.11. Work on U1G C50A U54A A57G U72A yielded a self-cleavage of 0.14. U1C C11U U66C showed a self-cleavage of 0.25. For U1C G8U A45C A56U, the self-cleavage was 0.24. In the case of A2G C4U U25C U72C, the self-cleavage is reported as 0.66. In the case of U1C G30U A57G, the self-cleavage is reported as 0.41. In the case of U1G U58C U69A, the self-cleavage is reported as 0.12. In the case of A2G C14U U60A U66C U69A, the self-cleavage is reported as 0.09. Work on A2G A20G C50A U54C U67C yielded a self-cleavage of 0.2. Variant A2G A35G U43C G55U U66C U72A C81U has a self-cleavage of 0. Work on A2G A3U G8A A45G U69C U76A yielded a self-cleavage of 0.08. With U1C C11G A56U the self-cleavage was 0.08. In the case of A2G C29A G33A G52U U54C U60C, the self-cleavage is reported as 0.05. Work on A2G C59G C71A yielded a self-cleavage of 0.18. With U1C U25C U60C U72C the self-cleavage was 0.2. With U1G U41A A57G the self-cleavage was 0.45. In the case of A2G A35U U48A A56G, the self-cleavage is reported as 0.56. With U1C C4U A20U A21U A56G U69A the self-cleavage was 0.15. A2C A47G U58C gave a self-cleavage of 0.67. A2C U43A A77C showed a self-cleavage of 1.01. Variant A2C A28G U51C U58C has a self-cleavage of 0.18. U1C U25C G33A U41A showed a self-cleavage of 0.07. With U1G G10A A28G U41A U74C U78A the self-cleavage was 0.04. A2G G6A C37U C50U U54A showed a self-cleavage of 0.07. A2G A13G C23U U26C U31C gave a self-cleavage of 0.06. With A2C U31A C38U U54G the self-cleavage was 0.2. With U1C U31A U43C U58C U69G the self-cleavage was 0.09. U1C C17G A18G U51A U66C U69A U78A gave a self-cleavage of 0.04. Work on A2G A28G C37G U41A U80C yielded a self-cleavage of 0.32. Variant A2G C14U A18U C40A U51C A65G has a self-cleavage of 0.03. Variant A2G A56G U69C has a self-cleavage of 0.24. For A2G A5G U26C U41C U48C U60C A64U, the self-cleavage was 0.74. A2C G7U G16U U41C G52A U69G gave a self-cleavage of 0.06. For U1C U26C U31G, the self-cleavage was 0.5. U1C G42A A56U showed a self-cleavage of 0.19. U1C A21G U48C U54A U67A U76C gave a self-cleavage of 0.07. Variant A2G A21U A56G has a self-cleavage of 0.9. A2G C50A U72C showed a self-cleavage of 0.34. Work on U1C A35G U41C C59A yielded a self-cleavage of 0.77. For A2G C37A A47G U51A A57G G63U U69A, the self-cleavage was 0.06. Variant U1C U25A U43C has a self-cleavage of 0.07. With U1C C40U A45G A57G U69C U74A the self-cleavage was 0.06. Work on A2G G7A A45U yielded a self-cleavage of 0.2. With U1C U26A A56U C71U the self-cleavage was 0.11. Variant U1C C12U A15U A35G C37U U51C U69C has a self-cleavage of 0.1. In the case of U1C C12G C39U A65U G70A A77U, the self-cleavage is reported as 0.03. Work on A2G A3G A20G A28G U69C yielded a self-cleavage of 0.54.
